# Reference: the supplement of paper PMC8183993
# Values joined by “and” are separate entries in the source; they are usually repeats but may differ in a detail not shown here. Identical values can stand only once. Counter-ions that a name gives are not always drawn. ± gives the standard deviation of the averaged measurements. Whole data set: some 3,200 compounds, median “nuclei count (viability) relative to DMSO” near 99, cut for the lowest 2% near 16. The list shows a part of the results.
# System: U2OS
# Experiment: nuclei count (viability) relative to DMSO (% of DMSO); higher = more viable cells
# Settings: 10 µM; 24 h
# Method: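 Primary image-based screen in U2OS cells: compounds at 10 uM for 24 h, then a 1 h o-propargyl-puromycin (OPP) pulse, click labelling, and high-throughput microscopy. Mean cytoplasmic OPP intensity and nuclei count were normalised to DMSO wells within each plate (DMSO = 100) and averaged over triplicate plates.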
row,SMILES,nuclei count
1,COc1c2occc2cc2ccc(=O)oc12 [Methoxsalen (Oxsoralen)],101
2,COc1ccc2c(OCc3nnc4ccc(-c5ccccc5)nn34)ccnc2c1,110
3,CN1CCN(C2=Nc3ccccc3Oc3ccc(Cl)cc32)CC1 [Loxapine succinate],101
4,CCN(CC)CCOC(=O)C1(C2CCCCC2)CCCCC1 [Dicyclomine hydrochloride],102
5,CCCCC(O)c1ccccc1 (stereo not given) [Fenipentol],91.7
6,CC(N/C(=N\C#N)Nc1ccncc1)C(C)(C)C (stereo not given) [Pinacidil H2O],104
7,CC(N/C(=N\C#N)Nc1ccncc1)C(C)(C)C (stereo not given) [Pinacidil],100
8,CCCc1cc(C)[nH]c(=O)c1CNC(=O)c1cc(-c2ccc(N3CCN(C(C)C)CC3)nc2)cc2c1cnn2C(C)C,81.1
9,C[N+]1(C)CCC(OC(=O)C(c2ccccc2)c2ccccc2)CC1,106
10,NC(=O)c1ccc(N(C(N)=O)c2c(F)cccc2F)nc1-c1ccc(F)cc1F,104
11,"CC(=O)Oc1ccccc1C(=O)Nc1ncc([N+](=O)[O-])s1 [Nitazoxanide (Alinia, Annita)]",98.5
12,"O=Cc1c2[nH]c3ccccc3c2cc2[nH]c3ccccc3c12 [6-Formylindolo [3,2-B] carbazole]",89.3
13,CN(C)CCCN1c2ccccc2Sc2ccc(C(F)(F)F)cc21 [Triflupromazine hydrochloride],97.5
14,COc1ccc([C@@H]2CC(=O)c3c(O)cc(O)cc3O2)cc1O [Hesperetin],87
15,O/N=C/c1ccc(-c2ccc(O)c(F)c2)c(Cl)c1O,93.5
16,N=C(NC(=O)c1nc(Cl)c(N)nc1N)Nc1ccccc1 [Phenamil],93.3
17,COc1ccc2c(c1)CCC1C2CCC2(C)C(NCCCCCCN3C(=O)C=CC3=O)CCC12 (stereo not given),98.9
18,COc1ccc(-c2ccc3c(N4CCOC[C@@H]4C)nc(N4CCOC[C@@H]4C)nc3n2)cc1CO,78.3
19,COC(=O)C1=C(C)NC(C)=C([N+](=O)[O-])C1c1ccccc1C(F)(F)F (stereo not given),103
20,COc1cc(C(=O)OCCCN2CCCN(CCCOC(=O)c3cc(OC)c(OC)c(OC)c3)CC2)cc(OC)c1OC [Dilazep dihydrochloride],87.4 ± 3.2
21,CC(C)C[C@H](NP(=O)(O)O[C@@H]1O[C@@H](C)[C@H](O)[C@@H](O)[C@H]1O)C(=O)N[C@@H](Cc1c[nH]c2ccccc12)C(=O)O [Phosphoramidon],101
22,COc1c(C)c(C(=O)c2ccc(N)c(C(=O)O)c2)n2ccccc12,105
23,CCCCC/N=c1\ccn(Cc2ccccc2)c2ccccc12,71.3
24,O=C1c2c(O)cccc2Cc2cccc(O)c21 [Anthralin],111
25,CN1c2cc3c(cc2N=C(c2ccc(C(=O)O)cc2)c2ccccc21)C(C)(C)CCC3(C)C,99.4

row,SMILES,nuclei count
1,COc1nccc(-c2c(-c3ccc(F)cc3)ncn2C2CCC(O)CC2)n1 (stereo not given),98.6
2,CC(=O)Nc1cccc(-n2c(=O)n(C3CC3)c(=O)c3c(Nc4ccc(I)cc4F)n(C)c(=O)c(C)c32)c1,86
3,C[C@@H](NCCCc1cccc(C(F)(F)F)c1)c1cccc2ccccc12 [AMG-073 HCl (Cinacalcet HCl)],101
4,Nc1[nH]cnc2ncnc1-2 [Adenine sulfate],107
5,Nc1[nH]cnc2ncnc1-2 [Adenine],93
6,CC[N+](C)(C)c1cccc(O)c1 [Edrophonium chloride],102
7,Cc1ccc(-c2csc3ncnc(SCCC(=O)O)c23)cc1,104
8,COc1ccc(CCN(C)CCCOc2ccc(S(=O)(=O)c3c(C(C)C)n(C)c4ccccc34)cc2)cc1OC,47.5
9,NCCc1c[nH]cn1 [Histamine dihydrochloride],99.3
10,OC(Cn1cncn1)(Cn1cncn1)c1ccc(F)cc1F [Fluconazole],109
11,CCCOc1cc(N)ccc1C(=O)OCCN(CC)CC [Propoxycaine hydrochloride],91.2
12,O=C(/C=C/C#Cc1cccc(NS(=O)(=O)c2ccccc2)c1)NO [Oxamflatin],26.2
13,Cc1cn[nH]c1 [Fomepizole],104
14,CC(=O)OCC(=O)[C@@]1(O)CC[C@H]2[C@@H]3CCC4=CC(=O)CC[C@]4(C)[C@@]3(F)[C@@H](O)C[C@@]21C [Fludrocortisone acetate],96.2
15,CC(=Cc1ccc(C(=O)O)cc1)c1ccc2c(c1)C(C)(C)CCC2(C)C,98.65 ± 0.044
16,COC(=O)C1=C(C)NC(C)=C(C(=O)OCCCN2CCC(c3ccccc3)(c3ccccc3)CC2)[C@@H]1c1cccc([N+](=O)[O-])c1 [(R)-(-)-Niguldipine hydrochloride],75.8
17,Cc1ccc(C(=O)c2ccc(CC(=O)O)n2C)cc1 [Tolmetin sodium salt dihydrate],97.7
18,COC(=O)Nc1nc2cc(C(=O)c3cccs3)ccc2[nH]1 [Nocodazole],16.9 ± 1
19,CCCCN(CCCC)CCCOC(=O)c1ccc(N)cc1 [Butacaine],92.1
20,O=C(O)CN1C(=O)c2cccc3cccc(c23)C1=O [Alrestatin],97.9
21,CC[N+](C)(CC)CCOC(=O)C1c2ccccc2Oc2ccccc21 [Methantheline bromide],102
22,CC(=O)OCC(=O)[C@@]1(O)CC[C@H]2[C@@H]3CCC4=CC(=O)CC[C@]4(C)[C@H]3[C@@H](O)C[C@@]21C [Cortisol acetate],105
23,CC(C)c1c(C(=O)Nc2ccccc2)c(-c2ccccc2)c(-c2ccc(F)cc2)n1CC[C@@H](O)C[C@@H](O)CC(=O)O [Atorvastatin],111
24,CC(C)c1c(C(=O)Nc2ccccc2)c(-c2ccccc2)c(-c2ccc(F)cc2)n1CC[C@@H](O)C[C@@H](O)CC(=O)O [Atorvastatin calcium (Lipitor)],95.8
25,Cc1ncc(C[n+]2csc(CCO)c2C)c(N)n1 [Thiamine hydrochloride],107

row,SMILES,nuclei count
1,CC(C)Oc1ccc(-c2c[nH]cc2CN(C)CCN)cc1,96.8
2,CCN[C@H]1CN(CCCOC)S(=O)(=O)c2sc(S(N)(=O)=O)cc21 [Brinzolamide],98.9
3,NS(=O)(=O)c1cc(C2(O)NC(=O)c3ccccc32)ccc1Cl (stereo not given) [Chlorthalidone],101
4,CC(C)(C)c1cnc(CSc2cnc(NC(=O)C3CCNCC3)s2)o1,42.3
5,CCCCCCCCCCCCCCCC(=O)OC/C=C(C)/C=C/C=C(C)/C=C/C1=C(C)CCCC1(C)C [Retinyl palmitate],111
6,C=CC(N)CCC(=O)O (stereo not given) [Vigabatrin],105
7,CC(=O)Nc1ccc(C(=O)Nc2ccccc2N)cc1,73.6 ± 7.5
8,COc1cc2c(Nc3ccc(NC(=O)c4ccccc4)cc3)ncnc2cc1OCCCN1CCOCC1,49.8 and 53.3
9,O=C(O)[C@]1(Cc2cccc(Nc3nccs3)n2)CC[C@@H](Oc2cccc(Cl)c2F)CC1,77.7 ± 2.7
10,COc1cc2c(NC3CCN(C(C)C)CC3)nc(C3CCCCC3)nc2cc1OCCCN1CCCC1,99
11,CC(Cc1cccc(C(F)(F)F)c1)NCCOC(=O)c1ccccc1 (stereo not given) [Benfluorex hydrochloride],107
12,CC(=O)S[C@@H]1CC2=CC(=O)CC[C@]2(C)[C@H]2CC[C@@]3(C)[C@@H](CC[C@@]34CCC(=O)O4)[C@H]12 [Spironolactone],100 ± 4.3
13,C#Cc1cccc(Nc2ncnc3cc(OC)c(OCCCCCCC(=O)NO)cc23)c1,29 ± 2.8
14,CCCc1cc(C(N)=S)ccn1 [Prothionamide],108
15,NNCCc1ccccc1 [Phenelzine sulfate],100
16,CC(C)(O)[C@H]1CC[C@@](C)([C@H]2[C@@H](O)C[C@@]3(C)[C@@H]4C[C@H](O[C@@H]5O[C@H](CO)[C@@H](O)[C@H](O)[C@H]5O)[C@H]5C(C)(C)[C@@H](O[C@@H]6OC[C@@H](O)[C@H](O)[C@H]6O)CC[C@@]56C[C@@]46CC[C@]23C)O1 [Astragaloside A],106
17,C=C1CC[C@H](O)C/C1=C/C=C1\CCC[C@]2(C)[C@@H]([C@H](C)CCCC(C)C)CC[C@@H]12 [Vitamin D3 (Cholecalciferol)],99.7
18,"Cn1c(CNc2ccc(C(=N)N)cc2)nc2cc(C(=O)N(CCC(=O)O)c3ccccn3)ccc21 [BIBR 953 (Dabigatran etexilate, Pradaxa)]",108
19,CNC1CCCN(c2c(F)cc3c(=O)c(C(=O)O)cn(C4CC4)c3c2OC)C1 (stereo not given) [Balofloxacin],102
20,C[C@H]1O[C@H](O[C@H]2[C@H](O)[C@@H](O)[C@@H](O[C@H]3[C@H](O)[C@@H](O)C(O)O[C@@H]3CO)O[C@@H]2CO)[C@H](O)[C@@H](O)[C@@H]1N[C@H]1C=C(CO)[C@@H](O)[C@H](O)[C@H]1O (stereo not given in full) [Acarbose],105 ± 4.5
21,"Nc1ccc(CC(CC(=O)O)C(=O)O)cc1 [4-Amino-D, L-benzylsuccinic acid]",97.5
22,CC(C)(C=O)Cc1cc(C(C)(C)C)c(O)c(C(C)(C)C)c1,99.2
23,CO[C@H]1/C=C/O[C@@]2(C)Oc3c(C)c(O)c4c(O)c(c(/C=N/N5CCN(C6CCCC6)CC5)c(O)c4c3C2=O)NC(=O)/C(C)=C\C=C\[C@H](C)[C@H](O)[C@@H](C)[C@@H](O)[C@@H](C)[C@H](OC(C)=O)[C@@H]1C [Rifapentine],104
24,CO[C@H]1/C=C/O[C@@]2(C)Oc3c(C)c(O)c4c(O)c(c(/C=N/N5CCN(C6CCCC6)CC5)c(O)c4c3C2=O)NC(=O)/C(C)=C\C=C\[C@H](C)[C@H](O)[C@@H](C)[C@@H](O)[C@@H](C)[C@H](OC(C)=O)[C@@H]1C [Rifapentine (Priftin)],98.5
25,CC(C)(C)NC[C@@H](O)COc1cccc2c1CCCC2=O [(+) -Levobunolol hydrochloride],99.3
